# The other results are listed elsewhere or left out.
# Tested on: PfAP2-HC AP2 domain (GST-tagged)
# Assay: gcPBM binding intensity (ln(normalized median fluorescence intensity)); higher = stronger DNA binding
# Outline: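 In this array assay, P. falciparum DNA-binding domains with a GST tag, expressed in E. coli, were applied for 1 h to primer-extended double-stranded 36-bp intergenic genomic probes and negative controls on an Agilent 4 × 180k array. Bound protein was visualised with Alexa488 anti-GST antibody at 488 nm. Binding intensity is the highest Masliner-normalised natural-log median intensity across replicate spots of either probe orientation.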
row,Sequence,gcPBM binding intensity (ln)
1,TACAAAAAATTATGGAGTACATATATAATATACAAT [XGTACX_site1004],9.57
2,GAACCATTTTTTGGTATACACACGTAATTATAGAAT [CACACA_site1851],9.67
3,AGATCATAATATTATACACACATTATGTATATGTAA [CACACA_site1490],9.77
4,TGAATACATAAATATAGTACATATATATATATATTA [XGTACX_site8756],9.65
5,TATAATATTATTTGAAGTACAAACATAAAAGAATTA [XGTACX_site3161],9.62
6,TATATACATACATATTGTACTTATAAAGATTAATTT [XGTACX_site2203],9.62
7,ATATAAGTATATCTATGTACATACAATATAAATGTA [XGTACX_site2153],9.8
8,TTTTAAAAAAAAAAAAAATAAGATAAAATTAAATAA [GTGCAC_negctrl_site367],9.19
9,ATAAAAAATATCACATAAAATAAAAAAAGAAAGGAT [XGTACX_negctrl_site294],9.86
10,TATATATATACAGTAGTGCATATATTTAAAATATAT [GTGCAC_site9999],9.68
11,TATATATAAAAATATACACACTGTATTATTGTAATA [CACACA_site5959],9.7
12,ATATATAAAAATAAATGTACATATTCATATGATGAT [XGTACX_site3411],9.74
13,GACAATTATATGTAGGTGCATATACAAATTTTTTAA,9.61
14,ATAGGATATTATTCCTGTACATATATATATATATAT [XGTACX_site2108],9.72
15,ATCAAAAGAAGACACACACACATACCTATAAATATA [CACACA_site7736],10.8
16,AATAGTTATTCCAGGTGTACATAACATATAATTTAC [XGTACX_site1340],9.68
17,TTATTATTATTACTTACGCACACTTTTTTTTTTATT [CACACA_site411],9.96
18,ATATATATATATATATGTACATACAATTATATTCTC [XGTACX_site1133],9.65
19,AATCTTCTTAATTGTAGTACACAATTTATAAACAAA [XGTACX_site8706],9.45

row,Sequence,gcPBM binding intensity (ln)
1,AAAAATCATTTAAGAACACACAAATATTTCCATTAA [CACACA_site1488],9.7
2,TACATAAATTTTAATACATGCAAATAAAATATATAA [TGCATGCA_site131],9.58
3,ATAACGAACACTATTACACACATACATACATATGTA [CACACA_site5092],9.94
4,AAAAAAAAAAAAAACACACACACATAGACCTCCAAT [CACACA_site3563],11.3
5,TTTTTTGTTACAACAGTGCAAAAAAACCTTAATGTT,9.44
6,TACATACATACATACACACACATATAGATTTATATA [CACACA_site6999],10.1
7,TATATAAAAATATACACACACAAATGTATATATATA [CACACA_site220],10.1
8,ATATATATATATATATCACACATTAATAATATATAT [CACACA_site5081],9.57
9,AAAACATAACATTGTTGTACTACTAATAAAATAAGT [XGTACX_site6149],9.77
10,ATAATTTTGTATAATTGTACATTATTTTAAATAAAT [XGTACX_site7952],9.56
11,TCTTTATTATTCGCCACACACATATAAATATAAATA [CACACA_site7441],9.86
12,TTTTTTTTTTTTTTTAAACACACGGTGTGAAAATTA [CACACA_site3818],9.43
13,ATCAATCATGGTTTTACACACACATGCATGTGAAAA [CACACA_site1350],9.86
14,TTTTCTGTGTTTACATGTACGAAAGATTAATATTAT [XGTACX_site5214],9.68
15,ATTTGATAGACACATGCACACATGCAATACTTTATT [CACACA_site5633],10.1
16,TTATCATATCATGGAAGTACAAATAAAATATATAAC [XGTACX_site1608],9.72
17,AATGATATATTTAAATGTACACATGAAATATAATAT [XGTACX_site2678],9.68
18,TTATATTTGATAGTTTGTACATATAATTATTATCAT [XGTACX_site5676],9.8
19,TATCTTCAAGTATGTACACACTATATATAATAAAAT [CACACA_site5368],9.79

row,Sequence,gcPBM binding intensity (ln)
1,ATAATTACATTCCATACACACATATATTTAAAGGTT [CACACA_site7403],9.81
2,TTCTTGTTCCTGAAAGTGCATATAACAAAAATAACA [GTGCAC_site9635],9.46
3,TATAAGTGCCGTTATACACACGTTATATAAATATTA [CACACA_site4401],9.59
4,ATAATTATATTTAGTGGTACTACTTTTGATAATTAG [XGTACX_site6562],9.33
5,TGTAATATATGTATTGCACACCTATAACCATTATTT [CACACA_site8422],9.89
6,GATGAATAATATGTATGTACATATGCATTATGATGT [XGTACX_site7655],9.8
7,ATATGCACTTTTTGCACACGTATGAATAACAAAATA [CACACA_site1810],9.93
8,ACATATAGATAAATATGTACATATATATATATATAT [XGTACX_site1806],9.63
9,AAATGTGAAAAAGAGTGTACCCGACTTGAAATTAAG [XGTACX_site8621],9.74
10,AGTAGAATATCCCCTACACACCCAAGTAATTTACAA [CACACA_site6708],10.4
11,AATTAAAAGTGAAGAGTGCATAGAATTTTTTACTTT [GTGCAC_site9973],9.64
12,TTTAATTTTCAATGGCGTACATATAAAATATTATAT [XGTACX_site1672],9.62
13,ACAAAAAGTTACATACGTACGTAAAATTGTAATAAA [XGTACX_site2358],9.91
14,ATAATACCATTAATTTGTACATATATATTATATATA [XGTACX_site4345],9.68
15,ATTATATTATATATATGTACATATATATATCATAAT [XGTACX_site1],9.52
16,TTTTGGATGAACAGTACATGCAAAAACAAACTTGTA [TGCATGCA_site16],9.47
17,TGCTTCTTTTAAAAACATGTTTGTATTCATTTTATA [CACACA_negctrl_site1627],9.85
18,ATTTCTCTATCGTAATGTACAAAAAAAAGGAAAAAA [XGTACX_site1323],9.53
19,ACATATAAATGATATGTACACACATTTATATATATA [CACACA_site9152],9.83

# — the supplement of paper PMC11417369
